# Experimental data from patent publication US11999716B2, “WDR5 inhibitors and modulators” (priority 2018, dated 2024).
# pKi: −log10 of the molar value.
# Molecular target: WDR5 (Homo sapiens, UniProt P61964)
# Experiment: biochemical
# Type: binding
# Conditions: WDR5-His tag (Δ23, residues 24-334) 2 nM; 10mer-Thr-FAM probe 150 nM; Tb-anti-HIS 1 nM; 60 min, room temperature; read-out: Ki for Inhibition of WDR5 by TR-FRET assay
row,SMILES,pKi
1,"Cc1nccn1Cc1cc2c(c(-c3cn(C)nc3C(F)(F)F)c1)CCN(Cc1cc(Br)c3ccccc3n1)C2=O [Example 204, 2-((4-Bromoquinolin-2-yl)methyl)-7-((2-methyl-1H-imidazol-1-yl)methyl)-5-(1-methyl-3-(trifluoromethyl)-1H-pyrazol-4-yl)-3,4-dihydroisoquinolin-1(2H)-one]",> 10.30
2,"Cc1nccn1Cc1cc2c(c(-c3cn(C)nc3C(F)(F)F)c1)CCN(Cc1cc(Br)ccn1)C2=O [Example 205, 2-((4-Bromopyridin-2-yl)methyl)-7-((2-methyl-1H-imidazol-1-yl)methyl)-5-(1-methyl-3-(trifluoromethyl)-1H-pyrazol-4-yl)-3,4-dihydroisoquinolin-1(2H)-one]",> 10.30
3,"CCn1cc(-c2cc(Cn3ccnc3C)cc3c2CCN([C@H](c2cc(OC)ccn2)C2CC2)C3=O)c(C(F)(F)F)n1 [Example 206, (S)-2-(cyclopropyl(4-methoxypyridin-2-yl)methyl)-5-(1-ethyl-3-(trifluoromethyl)-1H-pyrazol-4-yl)-7-((2-methyl-1H-imidazol-1-yl)methyl)-3,4-dihydroisoquinolin-1(2H)-one]",> 10.30
4,"Cc1nccn1Cc1cc2c(c(-c3cn(C)nc3C(F)(F)F)c1)CCN(Cc1cccc(Br)c1)C2=O [Example 207, 2-(3-Bromobenzyl)-7-((2-methyl-1H-imidazol-1-yl)methyl)-5-(1-methyl-3-(trifluoromethyl)-1H-pyrazol-4-yl)-3,4-dihydroisoquinolin-1(2H)-one]",> 10.30
5,"Cc1cc(CN2CCc3c(cc(Cn4ccnc4C)cc3-c3cn(C)nc3C(F)(F)F)C2=O)ccn1 [Example 208, 7-((2-Methyl-1H-imidazol-1-yl)methyl)-5-(1-methyl-3-(trifluoromethyl)-1H-pyrazol-4-yl)-2-((2-methylpyridin-4-yl)methyl)-3,4-dihydroisoquinolin-1(2H)-one]",10.23
6,"Cc1cccc(CN2CCc3c(cc(Cn4ccnc4C)cc3-c3cn(C)nc3C(F)(F)F)C2=O)c1 [Example 209, 7-((2-Methyl-1H-imidazol-1-yl)methyl)-5-(1-methyl-3-(trifluoromethyl)-1H-pyrazol-4-yl)-2-(3-methylbenzyl)-3,4-dihydroisoquinolin-1(2H)-one]",> 10.30
7,"CCc1cccc(CN2CCc3c(cc(Cn4ccnc4C)cc3-c3cn(C)nc3C(F)(F)F)C2=O)c1 [Example 210, 2-(3-Ethylbenzyl)-7-((2-methyl-1H-imidazol-1-yl)methyl)-5-(1-methyl-3-(trifluoromethyl)-1H-pyrazol-4-yl)-3,4-dihydroisoquinolin-1(2H)-one]",> 10.30
8,"COc1ccnc([C@H](C2CC2)N2CCc3c(cc(Cn4ccnc4)cc3-c3cn(C)nc3C)C2=O)c1 [Example 211, (S)-7-((1H-Imidazol-1-yl)methyl)-2-(cyclopropyl(4-methoxypyridin-2-yl)methyl)-5-(1,3-dimethyl-1H-pyrazol-4-yl)-3,4-dihydroisoquinolin-1(2H)-one]",> 10.30
9,"CCn1cc(-c2cc(Cn3ccnc3)cc3c2CCN([C@H](c2cc(OC)ccn2)C2CC2)C3=O)c(C(F)(F)F)n1 [Example 212, (S)-7-((1H-Imidazol-1-yl)methyl)-2-(cyclopropyl(4-methoxypyridin-2-yl)methyl)-5-(1-ethyl-3-(trifluoromethyl)-1H-pyrazol-4-yl)-3,4-dihydroisoquinolin-1(2H)-one]",> 10.30
10,"Cc1cc(CN2CCc3c(cc(Cn4ccnc4C)cc3-c3cn(C)nc3C(F)(F)F)C2=O)cnc1Cl [Example 213, 2-((6-Chloro-5-methylpyridin-3-yl)methyl)-7-((2-methyl-1H-imidazol-1-yl)methyl)-5-(1-methyl-3-(trifluoromethyl)-1H-pyrazol-4-yl)-3,4-dihydroisoquinolin-1(2H)-one]",> 10.30
11,"CCc1ccc(OCC(=O)NCc2cccnc2)c(CN2CCc3c(cc(Cn4ccnc4C)cc3-c3cn(C)nc3C(F)(F)F)C2=O)c1 [Example 215, 2-(4-Ethyl-2-((7-((2-methyl-1H-imidazol-1-yl)methyl)-5-(1-methyl-3-(trifluoromethyl)-1H-pyrazol-4-yl)-1-oxo-3,4-dihydroisoquinolin-2(19)-yl)methyl)phenoxy)-N-(pyridin-3-ylmethyl)acetamide]",> 10.30
12,"Cc1nccn1Cc1cc2c(c(-c3cn(C)nc3C(F)(F)F)c1)CCN(Cc1cc(Br)cc3c1OCC3)C2=O [Example 216, 2-((5-Bromo-2,3-dihydrobenzofuran-7-yl)methyl)-7-((2-methyl-1H-imidazol-1-yl)methyl)-5-(1-methyl-3-(trifluoromethyl)-1H-pyrazol-4-yl)-3,4-dihydroisoquinolin-1(2H)-one]",> 10.30
13,"CCc1ccc(OC)c(CN2CCc3c(cc(Cn4ccnc4C)cc3-c3cn(C)nc3C(F)(F)F)C2=O)c1 [Example 217, 2-(5-Ethyl-2-methoxybenzyl)-7-((2-methyl-1H-imidazol-1-yl)methyl)-5-(1-methyl-3-(trifluoromethyl)-1H-pyrazol-4-yl)-3,4-dihydroisoquinolin-1(2H)-one]",> 10.30
14,"Cc1cc2c(c(CN3CCc4c(cc(Cn5ccnc5C)cc4-c4cn(C)nc4C(F)(F)F)C3=O)c1)OCC2 [Example 218, 7-((2-Methyl-1H-imidazol-1-yl)methyl)-2-((5-methyl-2,3-dihydrobenzofuran-7-yl)methyl)-5-(1-methyl-3-(trifluoromethyl)-1H-pyrazol-4-yl)-3,4-dihydroisoquinolin-1(2H)-one]",> 10.30
15,"Cc1ccc2[nH]ncc2c1-c1cc(CN2CCc3c(cc(Cn4ccnc4C)cc3-c3cn(C)nc3C(F)(F)F)C2=O)cc(OC(F)(F)F)c1 [Example 220, 7-((2-Methyl-1H-imidazol-1-yl)methyl)-2-(3-(5-methyl-1H-indazol-4-yl)-5-(trifluoromethoxy)benzyl)-5-(1-methyl-3-(trifluoromethyl)-1H-pyrazol-4-yl)-3,4-dihydroisoquinolin-1(2H)-one]",9.89
16,"Cc1nccn1Cc1cc2c(c(-c3cn(C)nc3C(F)(F)F)c1)CCN(Cc1cccc(C(F)(F)F)c1)C2=O [Example 221, 7-((2-Methyl-1H-imidazol-1-yl)methyl)-5-(1-methyl-3-(trifluoromethyl)-1H-pyrazol-4-yl)-2-(3-(trifluoromethyl)benzyl)-3,4-dihydroisoquinolin-1(2H)-one]",10.28
17,"Cc1cnc(Cl)c(CN2CCc3c(cc(Cn4ccnc4C)cc3-c3cn(C)nc3C(F)(F)F)C2=O)c1 [Example 223, 2-((2-Chloro-5-methylpyridin-3-yl)methyl)-7-((2-methyl-1H-imidazol-1-yl)methyl)-5-(1-methyl-3-(trifluoromethyl)-1H-pyrazol-4-yl)-3,4-dihydroisoquinolin-1(2H)-one]",> 10.30
18,"COc1ccnc([C@H](C)N2CCc3c(cc(Cn4ccnc4C)cc3-c3ccncc3C)C2=O)c1 [Example 224, (S)-2-(1-(4-Methoxypyridin-2-yl)ethyl)-7-((2-methyl-1H-imidazol-1-yl)methyl)-5-(3-methylpyridin-4-yl)-3,4-dihydroisoquinolin-1(2H)-one]",> 10.30
19,"Cc1nccn1Cc1cc2c(c(-c3cn(C)nc3C(F)(F)F)c1)CCN(Cc1cc(Cl)cc3ccccc13)C2=O [Example 225, 2-((3-Chloronaphthalen-1-yl)methyl)-7-((2-methyl-1H-imidazol-1-yl)methyl)-5-(1-methyl-3-(trifluoromethyl)-1H-pyrazol-4-yl)-3,4-dihydroisoquinolin-1(2H)-one]",> 10.30
